System: bovine cartilage explants
Assay: Quantitative uptake of GFPs into bovine cartilage explants (uptake ratio, absorption bath fluorescence)
Type: in vitro ADME
Conditions: experimental, 24 hr, 1 μM in PBS+1% BSA
From the text: Cartilage tissue was harvested from the femoropatellar grooves of 11 knee joints from 11 different freshly slaughtered 1-2 week old bovine calves (Research 87, Boylston MA) as previously described. Cylindrical cartilage disks (3 mm in diameter) that included the intact superficial zone were cut out and washed with Dulbecco's phosphate buffered saline without calcium and magnesium (PBS). […]
Experiments to quantify the uptake of GFPs into cartilage were started after the explants had been pre-equilibrated in culture medium for 48 h post-harvest. […] (Standard 96-well cell culture plates were not used because S-GFPs could stick to polystyrene even in the presence of BSA, leading to a loss of protein. In contrast, use of polypropylene with 1% BSA enabled complete recovery of fluorescence). […] At the same time, the fluorescence of the absorption bath was measured using a plate reader (Synergy H1, Biotek Instruments Inc.) (excitation: 485 nm, emission: 528 nm). […] At the end of the desorption in 10×PBS+1% BSA, cartilage explants were weighed and the fluorescence of the desorption bath was measured. This fluorescence measurement was used with a standard curve and the explant wet weights to calculate the concentration of GFP inside cartilage explants (mol/mg wet weight). […]

B1: Janus GFP: neutral GFP variant with enhanced uptake; likely the net neutral GFP with more than 40% continuous surface positive charge, SEQ ID NO: 5 (protein)
chain: MGHHHHHHGSACELMVSKGEELFEGDVPILVELDGDVNGHEFSVRGEGEGDATKGELTLKFICTTGELPVPWPTLVTTLTYGVQCFSRYPKHMKQHDFFKSAMPEGYVQERTISFKDDGTYKTRAEVKFEGDTLVNRIELKGKDFKEKGNILGHKLEYNFNSHRVYITADKRKNGIKAEFKIRHNVKDGSVQLADHYQQNTPIGRGPVLLPRRHYLSTRSALSKDPKEERDHMVLLEFVTAAGIDHGMDELYK
  Uptake ratio: 10.1±1.3

From patent US12653899B2, “Multi-targeted, tunable, sustained delivery of payloads to charged avascular tissues” (Massachusetts Institute of Technology, priority 2019, dated 2026)
